Patent publication US20200231665A1 (published 2020)

Key:
His-tagged huPD-L1 = His-tagged huPD-L1 (human, UniProt Q9NZQ7 partial chain); assay: BLI
His tagged TGF-β1 = His tagged TGF-β1 (UniProt P01137 partial chain); assay: BLI
[1] = target: human PD-L1 on CHO-K1 cells (human, UniProt Q9NZQ7); assay: flow cytometry cell binding
[2] = target: FITC labeled human PD-L1-Fc protein (human, UniProt Q9NZQ7 partial chain, FITC labeled); assay: blocking of PD-L1 binding to PD-1 (flow cytometry, MFI)
huTGF-β1 = huTGF-β1 (human, UniProt P01137 partial chain); assay: ELISA; bridging ELISA: coated huTGF-β1, detected with biotinylated hu PD-L1
Sequence of huTGF-β1 (P01137 279-390): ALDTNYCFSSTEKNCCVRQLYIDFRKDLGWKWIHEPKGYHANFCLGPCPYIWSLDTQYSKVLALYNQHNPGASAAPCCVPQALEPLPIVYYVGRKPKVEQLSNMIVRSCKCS

Sequence of His-tagged huPD-L1 (Q9NZQ7 19-238): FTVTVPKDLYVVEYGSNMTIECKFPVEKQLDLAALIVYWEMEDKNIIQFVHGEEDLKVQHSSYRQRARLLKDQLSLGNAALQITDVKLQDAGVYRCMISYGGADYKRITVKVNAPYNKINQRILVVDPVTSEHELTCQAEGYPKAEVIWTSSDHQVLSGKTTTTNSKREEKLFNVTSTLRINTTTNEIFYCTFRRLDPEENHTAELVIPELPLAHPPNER
Sequence of His tagged TGF-β1 (P01137 279-390): as the sequence (P01137 279-390) above

B1: Bi-PLB-1.2 (bispecific antibody)
heavy: QVQLVQSGAEVKKPGASVKVSCKASGYTFTSYWMHWVRQAPGQGLEWMGMIHPNSGGNNYNEKFKSRVTMTRDTSISTAYMELSRLRSDDTAVYYCARSWYGSSPYYFDYWGQGTLVTVSSASTKGPSVFPLAPSSKSTSGGTAALGCLVKDYFPEPVTVSWNSGALTSGVHTFPAVLQSSGLYSLSSVVTVPSSSLGTQTYICNVNHKPSNTKVDKRV[sequence of human IgG1 Fc omitted]GGGGSGGGGSGGGGSGGGGSGIPPHVQKSVNNDMIVTDNNGAVKFPQLCKFCDVRFSTCDNQKSCMSNCSITSICEKPQEVCVAVWRKNDENITLETVCHDPKLPYHDFILEDAASPKCIMKEKKKPGETFFMCSCSSDECNDNIIFSEEYNTSNPD
light: DIQMTQSPSSLSASVGDRVTISCRASQDIDNYLNWYQQKPGKAPKLLIKYTSRLHSGVPSRFSGSGSGTDFTLTISSLQPEDFATYFCQQGYTLPWTFGGGTKVEIKRTVAAPSVFIFPPSDEQLKSGTASVVCLLNNFYPREAKVQWKVDNALQSGNSQESVTEQDSKDSTYSLSSTLTLSKADYEKHKVYACEVTHQGLSSPVTKSFNRGEC
With B1 the Kd (His-tagged huPD-L1) was 0.83 nM, the Kd (His tagged TGF-β1) was 0.28 nM and the EC50 [1] was 1.6 nM. It also gave an IC50 [2] of 1.23 nM and an EC50 (huTGF-β1) of 10.3 nM.
